# Measurements taken from PMC4336329 (PLoS ONE, 2015).
# About 2,200 (0.71%) of roughly 310,000 compounds showed an effect of 50% or more. Effects have a minus sign here. Some of the results follow.
# Target: human ether-à-go-go-related gene (hERG) potassium channel (human, UniProt Q12809)
# Assay: primary screen, population patch clamp on CHO cells stably expressing hERG
# Sequence of human ether-à-go-go-related gene (hERG) potassium channel (Q12809 whole entry, looked up): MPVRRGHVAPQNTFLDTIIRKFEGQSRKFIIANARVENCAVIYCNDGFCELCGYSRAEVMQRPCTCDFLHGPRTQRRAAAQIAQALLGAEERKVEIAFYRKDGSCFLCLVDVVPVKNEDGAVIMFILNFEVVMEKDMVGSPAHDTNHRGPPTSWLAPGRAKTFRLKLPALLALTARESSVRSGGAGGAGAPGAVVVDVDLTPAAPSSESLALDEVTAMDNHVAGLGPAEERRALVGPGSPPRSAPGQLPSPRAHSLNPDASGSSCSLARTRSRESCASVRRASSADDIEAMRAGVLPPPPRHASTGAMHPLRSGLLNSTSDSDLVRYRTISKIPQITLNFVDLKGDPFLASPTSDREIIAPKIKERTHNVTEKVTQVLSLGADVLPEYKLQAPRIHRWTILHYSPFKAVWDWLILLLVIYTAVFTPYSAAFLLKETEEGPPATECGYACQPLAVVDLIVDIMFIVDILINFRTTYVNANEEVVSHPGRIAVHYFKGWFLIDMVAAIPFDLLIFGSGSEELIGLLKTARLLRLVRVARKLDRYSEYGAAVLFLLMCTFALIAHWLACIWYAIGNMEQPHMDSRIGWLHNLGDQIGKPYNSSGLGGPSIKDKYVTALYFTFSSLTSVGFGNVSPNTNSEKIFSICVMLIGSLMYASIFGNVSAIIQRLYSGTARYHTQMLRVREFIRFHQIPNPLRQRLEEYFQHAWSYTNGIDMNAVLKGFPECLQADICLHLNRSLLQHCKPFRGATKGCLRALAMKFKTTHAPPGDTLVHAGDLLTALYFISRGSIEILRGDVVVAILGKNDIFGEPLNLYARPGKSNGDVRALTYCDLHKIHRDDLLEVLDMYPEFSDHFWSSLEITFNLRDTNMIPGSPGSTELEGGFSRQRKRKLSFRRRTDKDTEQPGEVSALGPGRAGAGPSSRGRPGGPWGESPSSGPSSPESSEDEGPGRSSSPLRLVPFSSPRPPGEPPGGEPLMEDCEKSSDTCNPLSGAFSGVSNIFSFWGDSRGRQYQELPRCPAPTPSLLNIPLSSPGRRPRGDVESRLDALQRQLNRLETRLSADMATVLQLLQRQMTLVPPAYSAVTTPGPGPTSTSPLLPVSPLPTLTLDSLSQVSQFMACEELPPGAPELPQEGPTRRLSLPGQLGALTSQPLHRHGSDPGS
row,Structure (SMILES),"hERG current change (%, negative = inhibition) at 1uM [%]"
1,Cc1ccc2[nH]cc(CCNC(=O)C3CCCCC3)c2c1,12.3
2,O=[N+]([O-])c1ccc(NC2CCN(Cc3ccccc3)CC2)c2ccncc12,13.2
3,COc1ccc(COc2cccc(C=O)c2)cc1,17.5
4,CN(C(=O)c1coc(=O)c2ccccc12)c1ccc(F)cc1,9.4
5,Br.CC(C)(C)C(=O)Cn1c(NCCCO)nc2ccccc21,5.43
6,CCOC(=O)c1c(CSc2ccsc2)n(C)c2cc(Br)c(O)c(CN(C)C)c12.Cl,-88.5
7,COCCN=C1Sc2nc3ccc(C)cc3cc2CN1Cc1cccs1,3.73
8,CCN(CC)c1ccc(C(=O)NC(=S)Nc2cc(S(=O)(=O)N3CCOCC3)ccc2-n2cncn2)cc1,0.698
9,[Cl-].c1ccc(Cn2c[n+](Cc3ccccc3)cn2)cc1,6.03
10,COc1ccc(C2CC(c3ccccc3)=NN2C(=O)c2cccs2)cc1 (centres unmarked),0.986
11,CCN1CCN(CC(=O)Nc2cc3c(cc2C(C)=O)OCO3)CC1.O=C(O)C(=O)O,4.25
12,CCOC(=O)c1ccc(NC(=O)CN2C(=O)NC3(CCCCCC3)C2=O)cc1,7.54
13,C=CCSc1nnc(NC(=O)CN2C(=O)NC3(CCCC3)C2=O)s1,9.31
14,CNC(=O)c1cccnc1Nc1cccc(C(F)(F)F)c1,5.42
15,Cc1noc(C)c1COc1ccccc1C(=O)Nc1cccc(S(=O)(=O)N(C)C)c1,-18.5
16,CC(=O)Nc1c2c(nn1-c1ccc(C)cc1)CS(=O)(=O)C2,16.8
17,Cc1cccc(-n2c(SCC(=O)N3CC(=O)Nc4ccccc43)nc3ccccc3c2=O)c1,11.5
18,Cc1ccc2c(c1)c(C)c(C)n2CC(O)Cn1nnc2ccccc21 (centres unmarked),12.4
19,COc1cccc(CNC(=O)C2CCCN(S(=O)(=O)c3c(C)noc3/C=C/N(C)C)C2)c1 (centres unmarked),7.14

row,Structure (SMILES),"hERG current change (%, negative = inhibition) at 1uM [%]"
1,Cc1ccc(C(=O)NC2CCN(Cc3ccccc3)CC2)cc1S(=O)(=O)N1CCOCC1,4.96
2,COc1cc(NC(=O)c2cccc([N+](=O)[O-])c2C)ccc1NC(=O)c1ccco1,7.67
3,Cc1nc(C)c(C(=O)NNS(=O)(=O)c2ccccc2)s1,9.95
4,CCOc1ccc(-c2n[nH]c(=S)n2/N=C/c2cc3c(cc2[N+](=O)[O-])OCO3)cc1,6.98
5,CC(C)OCCCNC(=O)c1cn(C)c2ccc(S(=O)(=O)N3CCCC3)cc2c1=O,17.7
6,CC(=O)c1ccc(OC(C)C)c(CC(C(N)=O)C(N)=O)c1,16.3
7,O=C(CSc1nc2ccccc2[nH]1)c1c[nH]c2ccccc12,13.9
8,O=C(Nc1ccc(C(F)(F)F)cc1)N1CCN(c2ccnc3cc(Cl)ccc23)CC1,-0.0947
9,COc1ccccc1C(=O)NNC(=O)c1ccncc1,14.9
10,Cc1ccc(S(=O)(=O)N(C)C)cc1NC(=O)c1cc(-c2ccco2)nc2ccccc12,15.6
11,Cc1ccc2[nH]c(-c3ccccc3)c(CN3CCN(C)CC3)c(=O)c2c1,1.75
12,Cc1ccc(N2CC(C(=O)Nc3nnc(SCC(=O)Nc4nc(C)cs4)s3)CC2=O)cc1 (centres unmarked),13.9
13,COC(=O)c1cc(S(=O)(=O)NCCc2ccc(C)cc2)c[nH]1,3.18
14,Cc1cccc(C)c1NC(=O)C(NC=O)c1ccccc1Cl (centres unmarked),5.06
15,Cn1c(=O)oc2cc(S(=O)(=O)N3CCCC(C(=O)N4CCc5ccccc5C4)C3)ccc21 (centres unmarked),6.61
16,C/C(=N\OCC(=O)Nn1c(=O)[nH]c2ccccc2c1=O)c1cccs1,-5.65
17,CCCc1cc(C(=O)Nc2ccc(F)c(Cl)c2)no1,6.56
18,CSc1nc2ccccc2c(=O)n1N,15.6
19,Cc1ccc2cc(S(=O)(=O)NCCCC(=O)O)ccc2c1,11.8

row,Structure (SMILES),"hERG current change (%, negative = inhibition) at 1uM [%]"
1,COCCN1C(=O)N(c2cccc(OC)c2)C(=O)C1CC(=O)Nc1ccc(Cl)cc1 (centres unmarked),9.61
2,Cc1c(Cl)cccc1NC(=O)COC(=O)CN1C(=O)NC(C)(C)C1=O,9.16
3,CCOC(=O)/C(C#N)=N/Nc1c(C)n(C)n(-c2ccccc2)c1=O,15.3
4,COc1ccc(C(CNC(=O)c2cccc(S(=O)(=O)Nc3ccccc3Cl)c2)N2CCOCC2)cc1 (centres unmarked),8.19
5,CC(C)c1ccc(CNC(=O)C2CCCN2S(=O)(=O)c2ccccc2)cc1 (centres unmarked),15.3
6,Cc1cc(=O)oc2c(CN(C)Cc3ccccc3)c(O)ccc12,1.88
7,CCOC(=O)/C(=N/Nc1ccc(Cl)cc1)Sc1nnnn1-c1ccc(C)cc1,17.7
8,CCC(=O)Nc1ccc(NC(=O)c2ccccc2)nc1,-4
9,COc1cccc(CNc2ccc(F)c(Cl)c2)c1OC,11.3
10,CCCS(=O)(=O)C(=C(Nc1ccc(OC)cc1)Nc1ccc(OC)cc1)S(=O)(=O)CCC,9.08
11,COc1ccc(C(=O)CC(=O)C(=O)Nc2cccc(C(C)=O)c2)cc1,15.4
12,O=C(c1ccccc1)N1CCN(C(=O)N2CCCCC2)CC1,15.4
13,CCOc1cccc(C2C(C#N)=C(N)Oc3cc(C)oc(=O)c32)c1OCC (centres unmarked),-1.41
14,CCCC(=O)NC(Oc1ccc(OC)cc1)C(Cl)(Cl)Cl (centres unmarked),-3.93
15,CCC(C)[C@H](NC(=O)NCc1ccc(S(N)(=O)=O)cc1)C(=O)OC (some centres unmarked),0.835
16,Nc1nc(SCC(=O)NC2CCCC2)[nH]c(=O)c1NC(=O)c1cccs1,5.17
17,O=C1C2CCCN2C(c2ccccc2)N1c1ccccn1 (centres unmarked),11.9
18,Cc1cccc(NC(=S)NC2CC3CCCC(C2)N3Cc2cccs2)c1C (centres unmarked),-6.58
